The results in this text go back to the RNAGym collection of RNA variant scans (doi:10.7554/elife.90254).

Sequences and labels used below:
B1: OR4K15 (parent)
chain: GUUAACGGUCAUAGGCCAUGGAAACUAGGAGCACCAUUUCGCUGCCAGUGAAGAAAUGAACAAAGAAAAUCUGGGCCAGGCAGGCAUCAAAAGAAAUAGUCUUGCGCUCAACCAGAAAGUCUGUAAUCAUUUUAAGGGUA

The source gives no read counts; variants with many changes may rest on few reads.

In this data set the parent is B1. Briefly: self-cleavage, relative activity (ratio to wild type); higher = more cleavage; in vitro, sequencing; the parent is a self-cleaving ribozyme.
For the variant U38C U39C U103C, the self-cleavage was found to be 2.22.
On to U38A A64G A90G, for which the self-cleavage stood at 1.92.
The same measure for U38C U39C A56G G106A: 0.01; for U39A A94G U102C A116U: 0.65; for U37C A86G U122C: 1.
Under U37C A64G A94G U97A C105G A111G U120C stands 0; under U38A A67G A140C, 1.7.
As for U38C U100C A140G, the self-cleavage was determined as 1.71.
Under U37C U43C A56U stands 2.11; under U38C U39A A82U, 0.18.
The same measure for U37C A69G A94G A95U: 1.24; for U38C A60G U70C A125G: 0.34; for U38C A90U A126C U130C: 0.51.
On to U37C A52U A140U, for which the self-cleavage stood at 1.09.
In the case of U37C A52G A66U U72C A92U, the self-cleavage was determined as 0.24.
Turning to U37C A78G U132A, the self-cleavage was 0.16.
As for U38C A89G A98U, the self-cleavage was 2.66.
Under U37C A54G A56G stands 1.54; under U38C A52G A56G U97A A114U, 0.12; under U37C A56G U72C U108C G119A A129G, 0.
With U38C A96G U120C, the self-cleavage is 0.94.
Under U38C A51G U70G stands 0.84.
Turning to U38C A54G A66U A126G, the self-cleavage turned out to be 1.21.
Consider U38C A56G U100C A125G U131C, for which the self-cleavage came out at 1.48.
Consider U38C U103C A126G A140G, for which the self-cleavage was determined as 0.86.
The same measure for U37C U57C G79U: 0.15; for U38C A52U U57C A78G A95G: 0.18; for U37C A62G A90U A118G: 2.25.
U37C C46U A60G U108C: the self-cleavage came out at 0.01.
The same measure for U37C A78G A114G: 0.1; for U39A A52G U122C U132C: 1.09.
Under U37C G44U A55G U70C A78G stands 0.3; under U39A U122C U139C, 0.49.
On to U38C U57C A116G A134U, for which the self-cleavage turned out to be 0.65.
Regarding U38C G48U A51G, the self-cleavage is 0.65.
The same measure for U38C U87C A90U: 1.41.
Under U39A A51G A91G U132C stands 0.4; under U38C U39C A67G, 1.28; under U37C A92U A95G, 1.99.
The same measure for U37C A47G A63G A126G: 1.39.
Turning to U38C A91G A111G, the self-cleavage turned out to be 0.
For U37C A62U G115A, the self-cleavage came to 0.14.
Turning to U37C A54U C107U, the self-cleavage stood at 0.01.
Take U37C A66U A82U: the self-cleavage was determined as 0.28.
The same measure for U38C U57C A114U A117U A125G: 0.02.
The same measure for U37C A59G A62G A69G: 1.01; for U37C A59U A140G: 0.89.
Under U38C U43C U102C G123A stands 2.59.
Take U37C A67G A125U A140G: the self-cleavage is 2.04.
U37C A64G U124C: the self-cleavage was determined as 0.49.
With U39A G75C A94G U132A, the self-cleavage was found to be 0.1.
As for U38C A67U A111G U122C, the self-cleavage was determined as 0.06.
Consider U37C U38C U87C, for which the self-cleavage was 1.8.
With U38C A91G A96U, the self-cleavage was 1.73.
The same measure for U38C U87C U108C A116G: 0; for U37C A82U A86G A118G: 0.09.
The same measure for U37C A54G A68G U103G U133A: 0.09; for U37C G79A U102C A126G: 0.08; for U39A A110C A129C: 0.1.
Take U38C A67G A118G U122C: the self-cleavage came out at 0.12.
The same measure for U37C A92G U131C: 1.18; for U38C A51U A91G A96G: 1.8; for U39A U43A U57A A89G A111G: 0.04.
The same measure for U37C U43A U122C: 1.03.
The same measure for U38A A63U A69G A110C: 0.38; for U39A A95G C112U: 0.03.
In the case of U38C A92G U102C U122C, the self-cleavage was 1.83.
The same measure for U37C A94U A114G: 1.62; for U38A A78U G106U A110G A140G: 0.01.
Under U38A A52G U97C U122G stands 1.42.
On to U38C A89G A94U, for which the self-cleavage is 0.79.
As to U37C A78U U122C, the self-cleavage is 0.13.
Under U37C A51G C88U C128A stands 1.91; under U38C C45U A64G A89U A125G, 0.72.
Consider U37C A90G A129G, for which the self-cleavage amounted to 0.73.
Under U37C A62G U87C stands 0.71; under U39A A59G A82C A111U, 0.05.
Under U38C A68G A94G G99A A125G stands 0.16; under U37C U57C A91G, 0.36; under U37C U43A U108C, 0.01.
Consider U37A U43A A60U A78U, for which the self-cleavage turned out to be 0.3.
As for U38C A64G A96G U127C, the self-cleavage was determined as 1.1.
Under U37C A95U U102C A111G stands 0.03; under U38C A51G A125G, 0.52.
Under U38A A60G A95G U100C stands 0.76; under U37C A59U A62G, 1.6.
The same measure for U38A A78U A96G U103C A111G A126G U133C: 0; for U38C U87C U124C: 0.99.
Take U38C A56G U130A: the self-cleavage was 0.33.
Consider U37C A56G A60G A64G U122C, for which the self-cleavage was 0.65.
Take U38C A68G A94G A114U: the self-cleavage was 0.07.
Under U39A A47G A91C G93U U102A U130C stands 0.08.
Under U38C A62G A69G A82U A91G stands 0.04; under U39A U103C A118G A125U, 0.58.
Under U37C A47U A82U A111G stands 0.02; under U38C A54G A91G A126U A129U, 0.58.
In the case of U38A U49C A91G, the self-cleavage came to 1.01.
Turning to U38C A60G A67G, the self-cleavage was determined as 1.16.
Under U39A A110U C113U stands 0.25.
With U37C A66G A68G A82G A94G U100C, the self-cleavage is 0.92.
Under U37C A67G A94U stands 1.04; under U38C A66G A68U A90G U100A, 0.41; under U38C A56G U70C U130C, 1.23.
On to U39A A59G A66U U72A A91G, for which the self-cleavage stood at 0.21.
Under U39A A51U A69G U87G stands 0.09.
As to U39A G50A A95C, the self-cleavage was 1.21.
U38C U39A A51G A90G: the self-cleavage was 0.36.
Under U37C A54G U57C A67G G136U stands 1.32; under U38A A91G C128U U131C, 0.66; under U38C A62G A86U U102C A125G, 1.56.
For the variant U38C A86U U127A, the self-cleavage worked out at 2.79.
The same measure for U39A U57C U97A G138C: 1.21; for U38C A68U U70C: 1.13.
The same measure for U38C A67U U70C: 0.92.
Take U38C A51G A111G: the self-cleavage amounted to 0.03.
Under U38A A94G A135G stands 1.18; under U37C U87C A134G, 1.26.
Turning to U37C U103C A114C, the self-cleavage was 0.03.
The same measure for U37C U103C A114U: 0.21; for U37C U43A U132C: 2.08; for U38C U43C A59G: 0.82.
Under U38C A51G U102A U127C stands 0.41; under U37C A92G A94G, 1.26.
Turning to U37C A52U G106A, the self-cleavage amounted to 0.01.
The same measure for U37C U38C A92G: 1.4; for U38C U39C A55G U133C: 1.53.
Under U37C A62G A95G U97G U130C stands 0.38; under U38A U97C U139G, 1.36.
The same measure for U37C A63G A82U A94G A95G: 0.4; for U37C U102A U127A: 1.09; for U37C A86G A126G: 1.13.
With U38C A118G U139C, the self-cleavage came to 1.01.
For U38C A56G A63G, the self-cleavage came to 1.85.
The same measure for U37C A89G U120C: 0.57; for U38C U43C A67G A111G U131C: 0.01; for U38A A66G A89G: 1.63.
For U39A A52U A64G U127C, the self-cleavage came out at 0.9.
For the variant U38C A63G G106A, the self-cleavage turned out to be 0.02.
Under U37C A56C A94G A118G stands 0.59.
Under U38C U72A A91G A116G stands 0.05; under U39C A47G A68G A86G, 1.63.
As to U37C A68G U108C, the self-cleavage came to 0.01.
Under U37C A69U A82U stands 0.09; under U38A A55G U108C, 0.04.
Regarding U38C A92G U132C, the self-cleavage was 2.08.
As to U37C A56G A89G U122C, the self-cleavage was determined as 1.63.
The same measure for U38C C76U A86G G137U: 0.08; for U38C A54G U102C: 1.96; for U38C A62G C101U A126G: 0.35.
Under U37C A60G A95U A116G stands 0.31; under U37C U103A U122A, 0.74; under U39A A51U A68U, 2.
Regarding U38A U43A U108C A117G, the self-cleavage amounted to 0.
For the variant U37C A51G A94G A110G U130C, the self-cleavage was determined as 0.03.
The same measure for U37C A56G A89U U108C A116G: 0; for U38C A67G U133C: 1.92; for U37C U72C A94G A126G U131C: 0.02.
Turning to U38C A52G A55G A69U A90G, the self-cleavage is 0.97.
Take U38C A86G A96G: the self-cleavage came to 0.63.
On to U38C A95G U108C, for which the self-cleavage amounted to 0.02.
As to U37C A52U A86C U100C A111U, the self-cleavage was found to be 0.14.
Under U37C U49C A64G A118G U131C stands 0.33.
With U38C A54U A111G A114U U127C U130C, the self-cleavage amounted to 0.
The same measure for U37C A51G A59G: 0.75; for U38A U72C A94G: 0.42.
The same measure for U38C G48U U108C: 0.01.
On to U38C U39A A52U C76G, for which the self-cleavage was determined as 0.06.
